From patent US11178870B2 (priority 2017, dated 2021)

Assays:
[1] = tested on: Magnaporthe grisea; assay type: in vivo; settings: Table 7, Test A
[2] = tested on: Phytophthora infestans; assay type: in vivo; settings: Table 7, Test F
[3] = tested on: Colletotrichum orbiculare; settings: 250 ppm sprayed (2.5 ml/pot) before inoculation; assessed 6 to 10 days after inoculation

| SMILES | control value, Test A (blast on rice) [1] | control value, Test F (late blight on tomato) [2] | control value, Test H (anthracnose on cucumber) [3] |
| --- | --- | --- | --- |
| CCn1c(-c2ccc(OC)cc2Cl)c(-n2cc(F)cn2)ccc1=O [Compound 362] | H (H shows the control value more than 50%) | L (L shows the control value of 50% or less) | H (H shows the control value more than 50%) |
| CCn1c(-c2ccc(F)cc2C)c(-n2cc(C)cn2)ccc1=O [Compound 367] | L (L shows the control value of 50% or less) | – | – |
